# Source: PMC9924070 (Science Translational Medicine, 2021)
# Biological target: T1, humVHH_S56A/LALA-Fc/Gen2 (human, E1D)
# T1 construct: also called XVR011
# Test: SPR
# Settings: both partners purified
binder,measurement,value
His-tagged recombinant human FcγRIIIa (V176) (receptor) not shown,Kd,5.66 µM
